{"source": "PubChem BioAssay AID463173", "about": "(ICCB-Longwood Screening Facility, Harvard Medical School, 2010)", "note": "Screen size: about 52,000 compounds; about 4,300 (8.3%) were called active. Rule as the data show it: active = survival mostly below about 52% (no sharp cut-off); inactive = mostly above about 56%. This is one part of the list.", "data": [{"system": "DeltatarO mutant", "test": "S. aureus survival, RN4220 and DeltatarO strains – OD600, teichoic acid synthesis inhibitors, primary screen (AID 463173)", "details": "S. aureus RN4220 wild type/DeltatarO growth, OD600, 18 h, hits give low values, screened at 18.75 µg/mL (by protocol)", "values": [{"smiles": "CCOC(=O)c1ccccc1NC(=O)CSc1cn(CC(=O)N2CCCCCC2)c2ccccc12", "survival": "inactive: 77%"}, {"smiles": "COc1ccc(S(=O)(=O)N(CC(=O)NCCc2ccccc2)c2ccc(Cl)cc2)cc1", "survival": "inactive: 83%"}, {"smiles": "CC(=O)SCCC(=O)N1CCn2c3c(c4cc(C)ccc42)CCCC31", "note": "(centres undefined)", "survival": "inactive: 92%"}, {"smiles": "CCN(Cc1ccccc1)C(=O)c1cc2sccc2n1Cc1ccccc1", "survival": "inactive: 67%"}, {"smiles": "CCOc1ccc(C(=O)c2oc3ccccc3c2NC(=O)c2cc(=O)c3ccc(C)cc3o2)cc1", "survival": "inactive: 134%"}, {"smiles": "Fc1ccc(NCc2ccccc2-c2nnc(-c3ccccc3Cl)o2)cc1Cl", "survival": "inactive: 77%"}, {"smiles": "CCc1ccc(-c2cc(C)no2)cc1S(=O)(=O)NCc1ccc(OC)cc1", "survival": "inactive: 94%"}, {"smiles": "COc1ccccc1CC(=O)Nc1c[nH]c(=O)[nH]c1=O", "survival": "inactive: 76%"}, {"smiles": "N#C/C(=C/c1ccccc1Cl)c1nc(-c2cc3ccccc3oc2=O)cs1", "survival": "inactive: 81%"}, {"smiles": "O=C(NCc1ccccn1)c1cc2n(n1)C(C(F)(F)F)CC(c1ccco1)N2", "note": "(centres undefined)", "survival": "inactive: 83%"}, {"smiles": "COc1cc(C)ccc1OCCSc1nc2ccc(NC(=O)c3ccccc3F)cc2s1", "survival": "inactive: 99%"}, {"smiles": "O=C(Cn1c(=O)n(CC2CCCO2)c(=O)c2ccccc21)Nc1ccc(F)cc1F", "note": "(centres undefined)", "survival": "inactive: 92%"}, {"smiles": "COC(=O)c1cc(NC(=O)Cn2nc(-c3ccccc3)c3c(c2=O)CCCC3)cc(C(=O)OC)c1", "survival": "active: 24%"}, {"smiles": "O=C1SCCc2c1n(Cc1ccccc1)c1ccccc21", "survival": "inactive: 86%"}, {"smiles": "O=C(/C=C/c1ccco1)N/C(=C\\c1ccc2c(c1)OCO2)C(=O)N1CCCCCC1", "survival": "inactive: 110%"}, {"smiles": "CCCCNC(=O)Cn1nc(N2CCN(c3ccccc3OC)CC2)ccc1=O", "survival": "inactive: 89%"}, {"smiles": "COc1ccc(Cl)cc1NC(=O)COc1cccc2c(=O)n(C)ccc12", "survival": "inactive: 96%"}, {"smiles": "COC(=O)c1ccc(NC(=O)CN(C)S(=O)(=O)c2ccc3c(c2)CCCC(=O)N3)cc1", "survival": "inactive: 79%"}, {"smiles": "CC1=NN(c2ccc(N)cc2)C(=O)C1", "survival": "inactive: 107%"}, {"smiles": "COc1cccc(C(=O)N2CCc3cc(OC)c(OC)cc3C2COc2ccc3c(C)cc(=O)oc3c2)c1", "note": "(centres undefined)", "survival": "inactive: 57%"}, {"smiles": "CCn1cc(S(=O)(=O)c2cc(C)cc(C)c2)c(=O)c2cc(F)c(N3CCN(c4ccccc4)CC3)cc21", "survival": "inactive: 79%"}, {"smiles": "CCCCn1c(CNc2ccc(C)cc2)nnc1SCC(=O)OC", "survival": "inactive: 78%"}, {"smiles": "Cc1cccc2cc(-c3nc(-c4cccs4)no3)c(=O)oc12", "survival": "inactive: 91%"}, {"smiles": "Cc1sc2ncn(CC(=O)N3CCN(c4cccc(Cl)c4)CC3)c(=O)c2c1S(=O)(=O)N1CCC(C)CC1", "survival": "inactive: 149%"}, {"smiles": "CCOc1ccc(C(c2c(O)cc(C)n(CCOC)c2=O)N2CCN(c3ccc(F)cc3)CC2)cc1", "note": "(centres undefined)", "survival": "inactive: 78%"}, {"smiles": "CCOC(=O)c1cc2sccc2n1CC(=O)NC(C)C", "survival": "inactive: 72%"}, {"smiles": "CCOc1ccc(-n2c(=O)c3c(C)c(C)sc3n(Cc3ccc(C(C)(C)C)cc3)c2=O)cc1", "survival": "active: 52%"}, {"smiles": "CC(=O)N1CCc2c(sc3c2c(=O)n(-c2cc(Cl)ccc2C)c(=O)n3C)C1", "survival": "inactive: 117%"}, {"smiles": "CCN1C(=O)Cc2cc(S(=O)(=O)N3CCOCC3)ccc21", "survival": "inactive: 100%"}, {"smiles": "CCN(CC)C(=O)Cn1c(=O)n(CCCCCC(=O)NCc2ccc(C)cc2)c(=O)c2sccc21", "survival": "inactive: 83%"}, {"smiles": "CCN(CC)C(=O)c1sc2c(c1C)c(=O)n(Cc1ccccc1)c(=O)n2Cc1c(C)cc(C)cc1C", "survival": "inactive: 70%"}, {"smiles": "O=C(NCC(c1ccco1)S(=O)(=O)c1cccs1)c1c(F)cccc1F", "note": "(centres undefined)", "survival": "inactive: 102%"}, {"smiles": "Cc1ccc2[nH]c(C)c(CCNC(=O)c3cc4cc(Br)ccc4oc3=O)c2c1", "survival": "active: 37%"}, {"smiles": "Cc1cccc(NC(=O)Cn2c(=O)n(CC3CCC(C(=O)NCCc4ccccc4)CC3)c(=O)c3ccccc32)c1C", "note": "(centres undefined)", "survival": "inactive: 80%"}, {"smiles": "CCOC(=O)c1ccc(NC(=O)c2c(NCc3ccc(OC)c(OC)c3OC)sc3c2CCC(C)C3)cc1", "note": "(centres undefined)", "survival": "inactive: 123%"}, {"smiles": "O=C(NCC(c1cccnc1)N1CCc2ccccc21)c1cccc(F)c1", "note": "(centres undefined)", "survival": "active: 44%"}, {"smiles": "Cc1nn(-c2ccc(N3CCCC3)nn2)c(C)c1CCC(=O)N1CCN(c2ccc(F)cc2)CC1", "survival": "inactive: 120%"}, {"smiles": "CCCCN(C(=O)CCn1c(=O)oc2ccccc21)c1ccccc1", "survival": "inactive: 79%"}, {"smiles": "COc1ccc(OCC(=O)N2CCN(C(=O)c3cccc(OC)c3OC)CC2)cc1", "survival": "inactive: 74%"}, {"smiles": "CC(C)Oc1ccc2ccc(=O)oc2c1", "survival": "inactive: 99%"}, {"smiles": "CCOc1ccc(-c2cc(CCCC(=O)NCCc3ccc(SC)cc3)no2)cc1", "survival": "inactive: 48%"}, {"smiles": "COCCn1c(C)cc(O)c(C(c2ccccc2Cl)N2CCN(c3ccccc3)CC2)c1=O", "note": "(centres undefined)", "survival": "inactive: 87%"}, {"smiles": "CC1CCCCN1C(=O)c1ccccc1NS(=O)(=O)c1ccc(F)cc1", "note": "(centres undefined)", "survival": "inactive: 96%"}, {"smiles": "COc1cc(NC(=O)c2noc3c2CC(C(C)(C)C)CC3)cc(OC)c1OC", "note": "(centres undefined)", "survival": "active: 40%"}]}]}
